Reference: publication PMC3731213
No constants are given. Whether binding was seen depends on the method and setting. In cells and extracts the contact can be indirect. Some binding calls cover weakened binding; strength is not graded here. One block for each molecule: values may come before it.

By UniProt entry, the sequences of proteins in these tests, tags left out.
UniProt P42003: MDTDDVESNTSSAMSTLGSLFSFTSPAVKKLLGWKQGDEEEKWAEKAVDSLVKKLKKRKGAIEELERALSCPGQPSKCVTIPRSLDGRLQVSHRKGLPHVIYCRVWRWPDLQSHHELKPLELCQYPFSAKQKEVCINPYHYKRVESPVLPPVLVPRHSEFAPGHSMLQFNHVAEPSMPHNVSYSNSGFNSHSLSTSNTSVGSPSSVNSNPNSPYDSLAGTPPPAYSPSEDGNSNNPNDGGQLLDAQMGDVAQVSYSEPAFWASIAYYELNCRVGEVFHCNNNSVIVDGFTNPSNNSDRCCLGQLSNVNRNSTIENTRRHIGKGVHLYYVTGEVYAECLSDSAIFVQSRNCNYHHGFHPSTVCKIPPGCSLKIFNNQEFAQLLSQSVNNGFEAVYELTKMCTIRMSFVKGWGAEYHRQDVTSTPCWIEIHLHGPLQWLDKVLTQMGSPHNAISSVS
UniProt O62609: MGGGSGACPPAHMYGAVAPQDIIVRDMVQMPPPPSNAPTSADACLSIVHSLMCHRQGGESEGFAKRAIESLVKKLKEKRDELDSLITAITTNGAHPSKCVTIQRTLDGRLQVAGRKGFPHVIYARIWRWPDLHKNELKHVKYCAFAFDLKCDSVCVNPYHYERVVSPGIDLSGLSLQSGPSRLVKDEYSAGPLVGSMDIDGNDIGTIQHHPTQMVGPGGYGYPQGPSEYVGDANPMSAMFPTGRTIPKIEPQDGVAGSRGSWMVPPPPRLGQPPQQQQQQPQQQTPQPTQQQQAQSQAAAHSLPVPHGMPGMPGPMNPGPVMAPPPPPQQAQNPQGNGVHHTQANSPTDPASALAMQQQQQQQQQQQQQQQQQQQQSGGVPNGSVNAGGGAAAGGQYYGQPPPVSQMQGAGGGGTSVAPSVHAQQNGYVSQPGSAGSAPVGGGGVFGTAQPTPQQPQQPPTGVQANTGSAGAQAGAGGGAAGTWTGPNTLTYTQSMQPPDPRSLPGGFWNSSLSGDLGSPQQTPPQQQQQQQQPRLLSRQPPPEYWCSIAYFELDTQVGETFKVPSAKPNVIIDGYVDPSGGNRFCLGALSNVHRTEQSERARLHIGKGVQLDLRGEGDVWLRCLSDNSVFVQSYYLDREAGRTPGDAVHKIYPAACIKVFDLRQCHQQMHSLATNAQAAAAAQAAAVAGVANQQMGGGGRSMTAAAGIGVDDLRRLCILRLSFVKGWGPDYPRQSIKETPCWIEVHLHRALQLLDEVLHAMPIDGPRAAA
UniProt O61735: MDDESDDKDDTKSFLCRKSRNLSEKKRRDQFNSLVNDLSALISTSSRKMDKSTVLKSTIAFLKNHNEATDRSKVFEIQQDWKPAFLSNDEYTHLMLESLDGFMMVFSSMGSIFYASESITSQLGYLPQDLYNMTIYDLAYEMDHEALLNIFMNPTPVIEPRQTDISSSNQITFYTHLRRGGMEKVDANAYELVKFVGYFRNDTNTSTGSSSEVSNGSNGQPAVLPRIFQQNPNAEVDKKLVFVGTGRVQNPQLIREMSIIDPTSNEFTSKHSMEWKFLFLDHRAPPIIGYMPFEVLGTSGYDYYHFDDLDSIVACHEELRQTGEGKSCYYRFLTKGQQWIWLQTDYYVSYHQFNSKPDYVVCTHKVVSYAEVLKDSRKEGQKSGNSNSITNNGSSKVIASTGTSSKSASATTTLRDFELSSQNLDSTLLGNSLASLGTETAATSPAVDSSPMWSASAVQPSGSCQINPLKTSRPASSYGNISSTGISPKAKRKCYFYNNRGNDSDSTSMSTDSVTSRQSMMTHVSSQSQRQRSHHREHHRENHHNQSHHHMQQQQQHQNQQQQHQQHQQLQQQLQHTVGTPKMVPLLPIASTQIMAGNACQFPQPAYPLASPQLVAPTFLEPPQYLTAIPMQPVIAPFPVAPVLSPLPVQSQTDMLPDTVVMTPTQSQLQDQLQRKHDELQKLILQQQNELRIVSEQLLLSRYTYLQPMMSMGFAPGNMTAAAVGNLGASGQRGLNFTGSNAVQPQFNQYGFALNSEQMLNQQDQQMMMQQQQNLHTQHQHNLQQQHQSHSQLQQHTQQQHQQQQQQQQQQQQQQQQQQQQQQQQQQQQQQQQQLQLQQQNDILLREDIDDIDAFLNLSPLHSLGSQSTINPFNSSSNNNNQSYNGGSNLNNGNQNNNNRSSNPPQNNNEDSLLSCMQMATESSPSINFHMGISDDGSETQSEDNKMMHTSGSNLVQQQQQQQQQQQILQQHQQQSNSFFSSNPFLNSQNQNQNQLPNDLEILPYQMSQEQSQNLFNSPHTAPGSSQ
UniProt Q24533: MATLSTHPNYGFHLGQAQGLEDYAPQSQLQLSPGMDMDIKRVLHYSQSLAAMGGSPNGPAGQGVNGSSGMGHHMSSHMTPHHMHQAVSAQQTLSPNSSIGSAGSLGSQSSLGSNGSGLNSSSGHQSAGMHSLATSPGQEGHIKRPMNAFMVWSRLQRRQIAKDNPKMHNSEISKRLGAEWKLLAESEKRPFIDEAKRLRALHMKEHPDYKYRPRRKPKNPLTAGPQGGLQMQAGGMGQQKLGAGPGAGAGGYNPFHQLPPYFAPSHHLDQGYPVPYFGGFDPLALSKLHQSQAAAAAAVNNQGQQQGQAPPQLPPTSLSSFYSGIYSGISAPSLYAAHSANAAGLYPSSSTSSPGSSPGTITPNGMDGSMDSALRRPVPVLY

What was measured:
Test in all cases: pull-down; modified LUMIER/LuMPIS: one partner fused to MBP, the other to Renilla luciferase, each made in a purified prokaryotic in vitro expression system and then combined; IP buffer (150 mM NaCl, 50 mM Tris pH 7.4), 4°C, 2 h; MBP-tagged protein isolated on amylose resin blocked with 5 percent BSA; luciferase retained relative to unfused luc gives the luminescence intensity ratio (LIR), cutoff 7 for positive; each pair in both configurations; duplicates
[1] = target: T1, CYC (D. melanogaster) (UniProt O61734)
T1 sequence: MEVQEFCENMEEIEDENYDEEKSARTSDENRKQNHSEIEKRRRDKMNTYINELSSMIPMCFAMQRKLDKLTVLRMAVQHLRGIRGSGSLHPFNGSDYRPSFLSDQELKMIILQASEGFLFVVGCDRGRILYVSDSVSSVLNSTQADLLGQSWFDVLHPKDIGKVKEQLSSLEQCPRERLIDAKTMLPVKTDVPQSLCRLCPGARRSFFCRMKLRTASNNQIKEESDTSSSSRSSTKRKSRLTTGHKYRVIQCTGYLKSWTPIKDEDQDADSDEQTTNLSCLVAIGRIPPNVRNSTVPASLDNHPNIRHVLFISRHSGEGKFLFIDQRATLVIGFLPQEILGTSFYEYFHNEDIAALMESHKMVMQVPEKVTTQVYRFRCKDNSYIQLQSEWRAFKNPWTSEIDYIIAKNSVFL

[2] = target: Mothers against dpp (MAD) (D. melanogaster) (UniProt P42003)
[3] = target: Medea (MED) (D. melanogaster) (UniProt O62609)
[4] = target: T2, Adh transcription factor 1 (ADF1) (D. melanogaster) (UniProt P05552)
T2 sequence: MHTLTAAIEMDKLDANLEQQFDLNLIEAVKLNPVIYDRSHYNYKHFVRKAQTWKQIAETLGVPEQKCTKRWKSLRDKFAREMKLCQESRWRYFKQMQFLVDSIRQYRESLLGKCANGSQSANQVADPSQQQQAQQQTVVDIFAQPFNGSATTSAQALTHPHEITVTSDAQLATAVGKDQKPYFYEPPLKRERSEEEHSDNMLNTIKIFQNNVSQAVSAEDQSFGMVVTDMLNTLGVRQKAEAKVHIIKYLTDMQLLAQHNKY

[5] = target: giant (GT) (D. melanogaster) (UniProt P39572)
[6] = target: T3, hunchback (HB) (D. melanogaster) (UniProt P05084)
T3 sequence: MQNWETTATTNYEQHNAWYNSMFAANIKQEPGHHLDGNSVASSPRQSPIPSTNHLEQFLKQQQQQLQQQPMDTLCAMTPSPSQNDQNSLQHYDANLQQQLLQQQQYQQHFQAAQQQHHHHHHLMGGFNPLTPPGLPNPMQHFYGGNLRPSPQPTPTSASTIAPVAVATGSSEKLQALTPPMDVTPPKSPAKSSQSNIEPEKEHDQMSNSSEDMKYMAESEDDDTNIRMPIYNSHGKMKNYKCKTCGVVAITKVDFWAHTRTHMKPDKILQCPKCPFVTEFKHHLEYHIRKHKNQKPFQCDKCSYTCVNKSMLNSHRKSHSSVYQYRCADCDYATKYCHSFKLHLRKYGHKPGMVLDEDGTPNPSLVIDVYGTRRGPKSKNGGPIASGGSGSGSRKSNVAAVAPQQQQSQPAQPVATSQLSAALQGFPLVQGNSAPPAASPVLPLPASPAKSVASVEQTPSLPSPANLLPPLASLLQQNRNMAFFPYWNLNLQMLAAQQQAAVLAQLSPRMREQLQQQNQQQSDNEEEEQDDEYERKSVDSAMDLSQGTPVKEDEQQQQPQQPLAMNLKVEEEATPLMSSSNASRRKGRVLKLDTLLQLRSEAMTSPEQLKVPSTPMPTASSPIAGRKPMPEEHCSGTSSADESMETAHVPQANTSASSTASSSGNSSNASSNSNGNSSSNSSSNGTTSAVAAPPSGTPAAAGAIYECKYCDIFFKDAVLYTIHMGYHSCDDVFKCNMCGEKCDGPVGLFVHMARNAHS

Molecule: CLK (from UniProt O61735 1-1027)
binding [1]: binds

B3: Adh transcription factor 1 (ADF1) (protein, UniProt P05552 1-262)
chain: T2 sequence
binding [6]: binds

B4: ribbon (RIB) (protein, UniProt Q7KF43 1-661)
chain: MGGPTAPVASSGEVGQTYCLRWNNHQTNLVQILHALHEVGSYVDCSLVVDDEQFQAHRVVLAANSPYFQHILKDVPQDHCSIILPGVKGFEIAALLQYMYTGETTVTKSQEPEILRTAKELQVKGLYDNLMKFNHASVTPTSSSGAGGAKPQNGSASNHSSSVISTSTHISPSAAISSSCSPPPPPQFGYQPGYSHYPQQQPMSASQIPAGEAPLTPTQATPHSAASGAGEAGGQWPLTPSAAAAMLNSVYESAADMNPLKRKKLSAISSMLLSGNRDTPILRNVLAQANPADSSQPGPMNANGEKTPTHPHQNTQLPAGLGVSGGERNHSFNGSDYGGDKEPLSPYTDRSFEEETGQSGGKKPEWKRYKQYTRADMMCAIQAVREGMSALQASRKYGLPSRTLYDKVRKLNITTGRGTHRTPKRSPPGAESSQGFSYSAAAAAAAHNYGHGHGHHSEVKRDQKVDHVPAHHGMPPTIPPSAAALLDHAFLQQALENRGGDMAGREALHAMALAAAAHAAANRLSSSPAEMDQRSNGHGMRSPSPQGRHYPHEQEAMDLEMEKHEQNIIKRERDQDEREDADDEEDHEQEHVEDLSLARKERPPSPYSPQPTEAGAGVIMHASSASANGKDHVDYPSSPQFVPIGLKRELMEGEDAQARAD
binding [3]: no binding
binding [2]: binds

Continued, values first:

binding [2]: binds
Molecule: D (SOX domain protein) (from UniProt Q24533 1-382)

binding [3]: binds
Molecule: Mothers against dpp (MAD) (from UniProt P42003 1-455)

binding [4]: binds
B1: hunchback (HB) (protein, UniProt P05084 1-758)
chain: T3 sequence

binding [5]: binds
B2: giant (GT) (protein, UniProt P39572 1-448)
chain: MLMHEKLMAGQFFDLKTDRKPLMHHHQYQHHQQQPLHHLPHSQLPVQGSLGLPKMDLYTAYAYQQQLLGAALSQQQQQQQQQQQHQQLQQQHTSSAEVLDLSRRCDSVETPRKTPSPYQTSYSYGSGSPSASPTSNLLYAAQMQQQQHQQQQQQQQQQQQLASLYPAFYYSNIKQEQATPTAAPPKVTPTANLLQTFAAASAAAAAAAAASSTNSPRPASNASTMQIDVLENPLSPAVEATTPTTSSSGEAGKNTRPFKAFPRDPLVIAANFAATDVLLDNPRVERYTEYRKRVLEQIRSSNGGSRTVTNPKMRRTNSRSGSVNEGSSSNNNSESEDRAAAEESSDCDSQAGNFESKSATSSSSNLANATAANSGISSGSQVKDAAYYERRRKNNAAAKKSRDRRRIKEDEIAIRAAYLERQNIELLCQIDALKVQLAAFTSAKVTTA
